About 7,500 (2.1%) of roughly 360,000 compounds were called active. This list was built around the results that the source calls inconclusive (neither active nor inactive); the mix of calls is not that of the screen. Calls come from the whole dose curve; as a rule, active = well fitted cell-killing curve with a large enough effect; inconclusive = small, poorly fitted or top-dose-only effect, or effect the other way, or another doubt; inactive = no such curve, though single readings can be large or run the other way. No potency is given beside an inconclusive call; the fits are too rough.
Assay: qHTS for induction of synthetic lethality in tumor cells producing 2HG: qHTS for the HT-1080-IDH1KD cell line
Details: HT-1080 IDH1 knockdown viability, ATP luminescence, 48 h; activity, negative = toxicity: at 46.1 µM (top of the series) unless noted
Excerpt: Unbiased genomic sequencing for 22 glioma genomes found recurrent mutation of IDH1 on chromosome 2q33, a gene encoding the cytosolic isoform of IIDH1 associated with the tri-carboxylic acid cycle (TCA) that catalyzes the oxidative decarboxylation of isocitrate, yielding alpha-ketoglutarate and CO2 via NADP+ to NADPH conversion. Subsequent studies confirmed the recurrent IDH mutations in up to 70% of secondary gliomas and in 10% of AML cases. In addition, the somatic mutation of cancer-associated IDH1 is a point mutation resulting in various amino-acid substituents at Arginine132 (IDH1 R132), a key residue found in the enzyme's active site that when mutated, results in the loss-of-function in metabolizing isocitrate but confers a gain-of-function to produce the oncometabolite 2-hydroxyglutarate (2HG). This in effect defines IDH1 as an oncogene and provides an extraordinary opportunity to discover chemical probes against mutant IDH1 that may translate into much needed new therapies for glioma and AML patients.
This assay aims to perform a synthetic-lethal screen for chemical probes specific for 2HG-producing tumor cells using matched paired cell lines (1) HT-1080-NT fibrosarcoma cell line that overproduces 2HG and (2) HT-1080-IDH1KD cell line which has IDH1 expression knocked-down. Desirable compounds are toxic to the NT fibrosarcoma cell line but not to the IDH1KD cell line. The data in this AID corresponds to the results of the qHTS against the HT-1080 IDH1KD cell line.
[1] Dang L, Jin S, Su SM. IDH mutations in glioma and acute myeloid leukemia. Trends of Mol Med. 2010; 16(9): 387-97.
[2] Dang L et al. Cancer-associated IDH1 mutations produce 2-hydroxyglutarate. Nature. 2010; 465(7300):966.
Molecular Libraries Probe Production Centers Network [MLPCN]
NIH Chemical Genomics Center [NCGC]
Assay Submitter (PI): Lenny Dang Ph.D., Agios Pharmaceuticals
Suspensions of trypsinized HT-1080-IDH1KD cells were dispensed into white, tissue culture-treated, solid 1536-well plates at 5uL/well (750 cells/well final concentration) in RPMI medium supplemented with 5% FBS. Plates were incubated at 37 degrees C for 2 hours, after which 23 nL of compounds or DMSO were delivered to each well using a pin tool. Plates were then incubated at 37 degrees C for an additional 48 hours. CellTiter-Glo viability reagent (Promega) was dispensed into wells (2.5uL/well) and incubated at room temperature for 10 minutes. The plates were measured on a PerkinElmer ViewLux plate reader for luminescent signal (clear filter, 1 sec exp.). DMSO-treated control wells and media-only (no cells) control wells were used to normalize %Activity of identified toxic compounds; DMSO-treated wells corresponded to 0%Activity (100% viability), while media-only controls were used to normalize 100%Activity (0% viability). To minimize variability between cell lines, both HT-1080-NT and HT-1080-IDH1KD lines were dispensed and treated with identical compound series in single batches.
Concentration-response curves were fitted to the signals arising from the resulting luminescence. The concentration-effect curves were then classified based on curve quality (r2), response magnitude and degree of measured activity, and compounds were subsequently categorized based on their curve class.
Potency is the fitted concentration of half-maximal effect; tags give direction and shape of the fitted curve.

Q: Which Potency does the source give for `O=C1C(F)=CC(COC(c2ccccc2)(c2ccccc2)c2ccccc2)OC1n1cc(F)c(=O)[nH]c1=O` (configuration not stated) here?
A: active: 20.6 µM

Q: For `Cc1nc2cc(-c3ccccc3)sc2c(=O)n1N`, which Potency is on record?
A: active: 3.66 µM

Q: For `O=[N+]([O-])c1ccc(Cl)c(/C=N/n2c(-c3ccncc3)n[nH]c2=S)c1`, which Potency is on record?
A: inconclusive [cytotoxic, partial curve]

Q: For `C/C(=N/Nc1ccc(C)cc1)C1(C)N(O)C(C)(C)C(c2ccco2)=[N+]1[O-]` (configuration not stated), which Potency is on record?
A: inconclusive [cytotoxic, partial curve]

Q: Which “activity, negative = toxicity” value does the source give for `CCOC(=O)N1CCN(c2cc(=O)n(-c3ccc(C)cc3)c(=O)[nH]2)CC1` here?
A: inactive: -1.52%

Q: Which Potency does the source give for `O=Cc1ccccc1OCc1ccc2c(c1)OCO2` here?
A: inconclusive [cytotoxic, single point]

Q: Which “activity, negative = toxicity” value does the source give for `CCc1ccc(-c2cc(C)no2)cc1S(=O)(=O)N1CCN(c2ccccc2F)CC1` here?
A: inactive: 1.73%

Q: With `COc1ccc(C(=O)/C=C/Nc2cc(C)on2)c(OC)c1` as the compound, how does the Potency read?
A: inconclusive [cytotoxic, single point]

Q: For `O=C(Nc1cccc(Cl)c1)c1ccc(F)c(S(=O)(=O)N2CCN(c3ccccn3)CC2)c1`, which Potency is on record?
A: inconclusive [cytotoxic, single point]

Q: With `CCn1c(C)cc(/C=C2/NC(=O)N(Cc3ccccc3F)C2=O)c1C` as the compound, how does the Potency read?
A: inconclusive [cytotoxic, single point]

Q: For `Cc1ccc(OCC(=O)Nc2ccc3oc(=O)ccc3c2)c(C)c1`, which “activity, negative = toxicity” value is on record?
A: inactive: -10.4%

Q: For `COC(=O)c1nn(-c2ccccc2)c(=O)cc1O`, which activity, negative = toxicity is on record?
A: inconclusive: 33%

Q: For `Cc1cc(C)n(-c2nc(NCCCN(C)C)c3c4c(sc3n2)COC(C)(C)C4)n1`, which “activity, negative = toxicity” value is on record?
A: inactive: -25.1%

Q: For `O=C(CN1CCc2ccccc2C1)Nc1ccc(OC(F)(F)F)cc1`, which “activity, negative = toxicity” value is on record?
A: inactive: -21%

Q: Which Potency does the source give for `Cn1c(=O)c2cc(NC(=O)NCc3ccc(F)cc3)ccc2n1C/C=C/c1ccccc1` here?
A: inconclusive [cytotoxic, full curve]

Q: With `CCOc1ccc(NC(=O)c2ccc(F)c(S(=O)(=O)N3CCN(c4ccccn4)CC3)c2)cc1` as the compound, how does the Potency read?
A: inconclusive [cytotoxic, single point]

Q: With `CCN1CCc2c(sc(NC(=O)c3ccc(S(=O)(=O)N4CCOCC4)cc3)c2C(=O)OC)C1` as the compound, how does the Potency read?
A: inconclusive [cytotoxic, single point]

Q: With `CC(/C=C/c1ccc2c(c1)OCO2)=N/NC(=O)CNc1ccc(C)cc1` as the compound, how does the Potency read?
A: inconclusive [cytotoxic, single point]

Q: For `CCOc1ccc2[nH]c(=O)c(CN(Cc3cccs3)C(CC)c3nnnn3C(C)(C)CC)cc2c1` (configuration not stated), which Potency is on record?
A: inconclusive [cytotoxic, partial curve]

Q: With `COc1ccc(Oc2c(Cl)cnn(-c3ccccc3)c2=O)cc1` as the compound, how does the Potency read?
A: inconclusive [cytotoxic, single point]

Q: Which “activity, negative = toxicity” value does the source give for `CC(=O)N1CCOc2ccc(S(=O)(=O)NC[C@H]3O[C@@H](n4ccc(N)nc4=O)[C@H](O)[C@@H]3O)cc21` here?
A: inactive: -0.449%

Q: With `S=c1nc(-c2ccccc2Br)[nH][nH]1` as the compound, how does the Potency read?
A: active: 10 µM

Q: For `c1ccc2c(Nc3ccc4c(c3)OCCO4)c3c(nc2c1)CCCC3`, which Potency is on record?
A: inconclusive [cytotoxic, single point]

Q: Which activity, negative = toxicity does the source give for `O=C(O)/C=C/C(=O)Nc1ccccc1-c1ccccc1` here?
A: inactive: -2.31% [at 9.24 µM]

Q: For `CN1CCc2c(sc3nc(SCC(=O)N4CCOCC4)nc(N)c23)C1`, which “activity, negative = toxicity” value is on record?
A: inactive: 0.703%

Q: With `COc1cc(/C=C/CN2CCC(C(=O)NC(c3ccc(F)cc3)c3ccc4ccccc4n3)CC2)ccc1OC(C)=O` (configuration not stated) as the compound, how does the Potency read?
A: inconclusive [cytotoxic, single point]

Q: For `O=C(Nc1ccc(C(F)(F)F)cc1)N1CCN(c2ccnc3cc(Cl)ccc23)CC1`, which Potency is on record?
A: active: 29.1 µM

Q: For `Cc1cc(C(=O)N2CCN(c3cccc(Cl)c3)CC2)c(C)o1`, which Potency is on record?
A: active: 16.4 µM

Q: For `CC(C)(C)NC(=O)CN(C(=O)Cn1nnc(-c2ccc(Cl)cc2)n1)C1CCN(Cc2ccccc2)CC1`, which Potency is on record?
A: inconclusive [cytotoxic, single point]

Q: Which Potency does the source give for `O=C(O)c1ccc(/C=C2\COc3ccccc3C2=O)cc1` here?
A: inconclusive [cytotoxic, partial curve]

Q: Which Potency does the source give for `C/C(=N\NC(=O)Cc1ccc(Cl)cc1)c1ccccc1O` here?
A: active: 5.17 µM

Q: With `COC(=O)c1c(NC(=O)c2nc3ccccc3s2)sc2c1CC(C)(C)NC2(C)C` as the compound, how does the “activity, negative = toxicity” value read?
A: inactive: 6.92%

Q: Which “activity, negative = toxicity” value does the source give for `COc1ccc(NC(=O)CN2CCN(C(C)=O)CC2)cc1S(=O)(=O)N1CCOCC1` here?
A: inactive: 16.6%

Q: Which Potency does the source give for `NCC(c1ccc(Cl)cc1Cl)c1c[nH]c2ccccc12` (configuration not stated) here?
A: inconclusive [cytotoxic, single point]

Q: With `CC(C)NS(=O)(=O)c1ccc(NC(=O)NC2CCCCC2)cc1` as the compound, how does the “activity, negative = toxicity” value read?
A: inactive: -11.4%

Q: Which Potency does the source give for `COc1cccc(/C=N/NC(=O)c2cc3cc([N+](=O)[O-])ccc3s2)c1O` here?
A: active: 2.91 µM

Q: With `C#CC[N+](C)(C)CCCCCCCC` as the compound, how does the Potency read?
A: inconclusive [cytotoxic, single point]

Q: With `CCOC(=O)C1C(=O)NC(SCC(=O)OC)=C(C#N)C1c1ccccc1OCC` (configuration not stated) as the compound, how does the “activity, negative = toxicity” value read?
A: inactive: -1.91%

Q: Which “activity, negative = toxicity” value does the source give for `Cc1cccc(C)c1NC(=S)N/N=C/c1c(Cl)cccc1Cl` here?
A: inactive: 11.8%

Q: With `O=c1c2[nH]c3ccccc3c2ncn1Cc1cccnc1` as the compound, how does the “activity, negative = toxicity” value read?
A: inactive: 9.03%

Q: For `Cc1cc(C(c2nnnn2Cc2ccccc2)N2CCOCC2)c(C)n1-c1ccc2c(c1)OCO2` (configuration not stated), which Potency is on record?
A: active: 10 µM

Q: For `COc1ccc(-c2cc3nc(NCC4CCCCC4)n(C)c(=O)c3s2)cc1OC`, which Potency is on record?
A: inconclusive [rising, single point]

Q: Which Potency does the source give for `O=c1[nH]c(=S)[nH]c2c1[C@H](CCc1cccc(Cl)c1)O[C@H](C1CC1)C2` here?
A: inconclusive [cytotoxic, single point]

Q: For `O=C(Oc1ccccc1C(=O)Nc1ccccc1)c1ccc(Br)c([N+](=O)[O-])c1`, which Potency is on record?
A: inconclusive [cytotoxic, single point]

Q: Which Potency does the source give for `COc1ccc(C(=O)c2[nH]c(N)c(C(=O)NCCc3c[nH]c4ccccc34)c2-c2ccc(Cl)c(F)c2)cc1` here?
A: active: 20.6 µM

Q: Which “activity, negative = toxicity” value does the source give for `Nc1nc(-c2cc3ccccc3o2)cs1` here?
A: inactive: -2.38%

Q: With `COc1ccc(C(NC(=O)C2CCN(CCOc3ccc(Cl)cc3)CC2)c2cccs2)cc1` (configuration not stated) as the compound, how does the Potency read?
A: inconclusive [cytotoxic, partial curve]

Source: PubChem BioAssay AID686971 (National Center for Advancing Translational Sciences (NCATS), 2013)
